Relative cell viability data for 32 compounds are collected here from the supplement of paper PMC12355420.

Where a name gives a salt, the structure may show the parent alone. The list shows a part of the results. Most values come without repeats; read them as rough.
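Note: primary screen of an FDA-approved drug library in HeLa reporter cells in 96-well format, CellMask signal normalized to DMSO-treated wells set as 1, under 0.5 deemed highly cytotoxic.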

The test system of this assay is HeLa VPS33A reporter cells. The assay is described as follows: relative cell viability (CellMask signal) vs DMSO (fraction of DMSO); HeLa model of a glycosaminoglycan (GAG) storage disease; KI is knock-in and KO knock-out; SDC1 is syndecan 1; higher = less cytotoxic. Particulars: 50 µM; 24 h.
`CN1CCC[C@H]1c1cccnc1` [Nicotine Difartrate] had a relative cell viability of 1.18.
In turn, `Cc1nccn1CC1CCc2c(c3ccccc3n2C)C1=O` (configuration not stated) [Ondansetron HCl] gave a relative cell viability of 0.847.
As for `CCN1CCN(C(=O)N[C@@H](C(=O)N[C@@H]2C(=O)N3[C@@H]2SC(C)(C)[C@@H]3C(=O)O)c2ccccc2)C(=O)C1=O` [Piperacillin Sodium], the figure is 0.825; as for `CCCCCCCCCCCCCCCCCC(=O)OC` [Stearic Acid methyl ester], 1.03; as for `Nc1ccccc1NC(=O)c1ccc(CNC(=O)OCc2cccnc2)cc1` [Entinostat (MS-275,SNDX-275)], 0.687.
In turn, `C[N+](C)(C)CCOC(=O)CCC(=O)OCC[N+](C)(C)C` [Succinylcholine Chloride Dihydrate] had a relative cell viability of 0.946.
As for `CNC[C@H](O)c1ccc(O)c(O)c1` [Epinephrine HCl], the figure is 1.35.
As to `CC(C)(C)C(=O)Oc1ccc(S(=O)(=O)Nc2ccccc2C(=O)NCC(=O)O)cc1` [Sivelestat (ONO-5046)], the relative cell viability stood at 1.15.
On to `COC(=O)C1=C(C)NC(C)=C(C(=O)OCCN2CCN(C(c3ccccc3)c3ccccc3)CC2)C1c1cccc([N+](=O)[O-])c1` (configuration not stated) [Manidipine], for which the relative cell viability was found to be 0.803.
The compound `CCc1ccc(CCOc2ccc(CC3SC(=O)NC3=O)cc2)nc1` (configuration not stated) [Pioglitazone HCl] came in with a relative cell viability of 1.33.
As for `COc1ccc(NC(=O)c2ccc(C(=N)N(C)C)cc2)c(C(=O)Nc2ccc(Cl)cn2)c1` [Betrixaban], the figure is 1.01.
`O=C1CN(/N=C/c2ccc(-c3ccc([N+](=O)[O-])cc3)o2)C(=O)N1` [Dantrolene, sodium salt] displayed a relative cell viability of 1.15.
As for `CC(C)NCC(O)c1ccc(NS(C)(=O)=O)cc1` (configuration not stated) [Sotalol], the figure is 1.16; as for `COc1ccc2c(c1)c(CC(=O)O)c(C)n2C(=O)c1ccc(Cl)cc1` [Indomethacin], 1.07; as for `CC(C)NC[C@H](O)COc1ccc(CCOCC2CC2)cc1` [Levobetaxolol HCl], 0.946.
The figure for `Cc1ccc(S(=O)(=O)NC(=O)NN2CCCCCC2)cc1` [Tolazamide] is 1.01; for `CC(=O)Oc1ccc(C(c2ccc(OC(C)=O)cc2)c2ccccn2)cc1` [Bisacodyl] it is 1.06.
For the compound `Nc1ccc(S(=O)(=O)Nc2ccccn2)cc1` [Sulfapyridine], the relative cell viability is 1.07.
The figure for `CC1(C)S[C@@H]2[C@H](NC(=O)[C@H](NC(=O)N3CCNC3=O)c3ccccc3)C(=O)N2[C@H]1C(=O)O` [Azlocillin sodium salt] is 0.982; for `C#Cc1cccc(Nc2ncnc3cc(OCCOC)c(OCCOC)cc23)c1` [Erlotinib Hydrochloride] it is 1.32; for `FC(F)(F)c1ccc(/C=C/c2nc(COc3ccc(CCCCn4ccnn4)cc3)co2)cc1` [Mubritinib (TAK 165)] it is 1.46.
The figure for `CC1(C)[C@@H](OC(=O)CCC(=O)O)CC[C@]2(C)[C@H]3C(=O)C=C4[C@@H]5C[C@@](C)(C(=O)O)CC[C@]5(C)CC[C@@]4(C)[C@]3(C)CC[C@@H]12` [Carbenoxolone disodium] is 1.02; for `CC[C@H](C)[C@@H]1NC(=O)[C@H](Cc2ccc(OC)cc2)NC(=O)CCCSC[C@@H](C(=O)N2CCC[C@H]2C(=O)N[C@@H](CC(C)C)C(=O)NCC(N)=O)NC(=O)[C@H](CC(N)=O)NC(=O)[C@H](CCC(N)=O)NC1=O` [Carbetocin] it is 1.1; for `NC(CO)C(=O)NNCc1ccc(O)c(O)c1O` (configuration not stated) [Benserazide HCl] it is 1.3.
The figure for `CC1(C)S[C@@H]2[C@H](NC(=O)[C@H](N)c3ccc(O)cc3)C(=O)N2[C@H]1C(=O)O` [Amoxicillin] is 1.03; for `O=C(NC[C@H]1CN(c2ccc(N3CCOCC3=O)cc2)C(=O)O1)c1ccc(Cl)s1` [Rivaroxaban] it is 1.07; for `C[C@H](CCC(=O)O)[C@H]1CC[C@H]2[C@@H]3[C@@H](O)C[C@@H]4C[C@H](O)CC[C@]4(C)[C@H]3CC[C@]12C` [Ursodiol] it is 0.997.
Regarding `C[C@H]1Oc2cc(cnc2N)-c2c(nn(C)c2C#N)CN(C)C(=O)c2ccc(F)cc21`, the relative cell viability is 0.964.
As for `N[C@@H](CS)C(=O)O`, the figure is 0.922.
`COc1ccc2[nH]c([S@@+]([O-])Cc3ncc(C)c(OC)c3C)nc2c1` [Esomeprazole Sodium] had a relative cell viability of 1.12.
As to `OCCN1C[C@H](O)[C@@H](O)[C@H](O)[C@H]1CO` [Miglitol], the relative cell viability amounted to 0.972.
The figure for `C[C@H](CCC(=O)NCCS(=O)(=O)O)[C@H]1CC[C@H]2[C@@H]3[C@@H](O)C[C@@H]4C[C@H](O)CC[C@]4(C)[C@H]3CC[C@]12C` [Sodium Tauroursodeoxycholate (TUDC)] is 1.06.
